Test results reported in PubChem BioAssay AID485281 (National Center for Advancing Translational Sciences (NCATS), 2010).
Hit rate of the full screen: of about 350,000 compounds, about 260 (0.074%) were called active. The inconclusive results got no clear call from the source; some entries with a clear call stand among them for comparison. The call rests on the fitted dose curve; in most records, active means well fitted inhibition curve with a large enough effect; inconclusive means small, poorly fitted or top-dose-only effect; inactive means no such curve, though single readings can be large or run the other way. Potencies beside an inconclusive call are fits to weak or partial responses and may not hold up.

What follows are compounds tested against Ferritin light chain (Equus caballus) (UniProt P02791) (assay: qHTS Assay for Identification of Novel General Anesthetics). Settings: apoferritin/1-aminoanthracene competitive binding, fluorescence; activity change, negative = displacement: at 77.5 µM (top of the series).
Chain of UniProt P02791 (P02791 whole entry, looked up): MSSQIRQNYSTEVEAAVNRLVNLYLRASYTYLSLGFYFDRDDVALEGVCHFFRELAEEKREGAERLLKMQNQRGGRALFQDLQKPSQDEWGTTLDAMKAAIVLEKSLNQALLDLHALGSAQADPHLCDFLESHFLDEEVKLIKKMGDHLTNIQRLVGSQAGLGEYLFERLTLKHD
How it was run: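 Concentration-response curves derived by four-parameter Hill fitting of normalized fluorescence, where compounds displaced 1-AMA from 10 uM horse apoferritin following a brief 10 min room-temperature incubation; propofol titration acted as positive control.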
Further: nearly all actives have a fitted effect of over 20% in size.
On the % scale 0 is the no-effect control and ±100 the full control effect; potency means the concentration at half of the fitted maximal effect; tags describe the fitted curve by direction and shape.

Structure (SMILES)	Potency	activity change, negative = displacement
Cc1ccc(Nc2nc3ccccc3s2)c(C)c1	inconclusive: 44.7 µM [inhibitor, partial curve]	
Cc1cc(Nc2ccc(Cl)cc2)nc(N)n1	inconclusive: 44.7 µM [inhibitor, single point]	
CCOC(=O)c1cccc(NC(=O)CSc2nnc(CNc3ccc(C)cc3)n2CC)c1	inconclusive: 44.7 µM [inhibitor, single point]	
CC(=O)Nc1ccc(C(=O)OCc2ccc(Cl)cc2)cc1	inconclusive: 25.1 µM [inhibitor, partial curve]	
Cc1cccc(C(=O)OCc2cc(=O)n3ccsc3n2)c1	inconclusive: 28.2 µM [inhibitor, partial curve]	
O=C(Nc1ccccc1O)c1cccc(NC(=O)c2ccco2)c1		inactive: -3.94%
CCOC(=O)Cn1c(=O)c2c(nc3n2CCN3c2ccc(C)cc2)n(C)c1=O	inconclusive: 28.2 µM [inhibitor, partial curve]	
N#C/C(=N\Nc1ccc(Cl)cc1)C(=N)N1CCCCC1	inconclusive: 15.8 µM [inhibitor, partial curve]	
COc1ccc(Cn2ccc3nc(C)c(C(=O)Nc4ccc(OC)cc4)cc3c2=O)cc1	inconclusive: 22.4 µM [inhibitor, partial curve]	
CC(C)c1ccc(/C=C2\SC(=S)N(CCC(=O)NCCCn3ccnc3)C2=O)cc1	inconclusive: 12.6 µM [inhibitor, partial curve]	
CSc1ccc(-c2nc(CSCC(=O)NCCCN3CCOCC3)c(C)o2)cc1		inactive: -8.88%
O=C(Nc1ccc2c(c1)OCCO2)NC12CC3CC(CC(C3)C1)C2	inconclusive: 15.8 µM [inhibitor, partial curve]	
O=c1cc(-c2ccc(O)cc2)oc2cc(O)cc(O)c12		inactive: -11.4% [at 29.3 µM]
CCOC(=O)Cc1csc(NC(=O)c2sc3nc4ccc(C)cc4cc3c2N)n1	inconclusive: 17.8 µM [inhibitor, partial curve]	
CC(=O)Nc1nc2n(n1)C(c1ccc(F)cc1)C=C(c1ccc(Cl)cc1)N2 (centres undefined)	inconclusive: 7.08 µM [inhibitor, partial curve]	
CCn1cc([N+](=O)[O-])c(C(=O)Nc2ccn(C34CC5CC(CC(C5)C3)C4)n2)n1	inconclusive: 39.8 µM [inhibitor, single point]	
COC(=O)c1sccc1NC(=S)OC	inconclusive: 39.8 µM [inhibitor, single point]	
COc1cc(Cl)nn(-c2ccccc2)c1=O		inactive: 5.52%
CCCCC(=O)Nc1ccc(NC(=O)c2cc(OC)c(OC)c(OC)c2)cn1	inconclusive: 10 µM [inhibitor, partial curve]	
CCn1c(CCCOc2ccc(Cl)cc2Cl)n[nH]c1=S		inactive: -18.9%
C=CCNc1nc(N)c(C(=O)c2ccc3c(c2)OCO3)s1	inconclusive: 39.8 µM [inhibitor, single point]	
CCCCN(C)C(=O)CCC(=O)Nc1ccc2nc(N3CCOCC3)cc(C)c2c1		inactive: -5.76%
O=C(N/N=C/c1ccc(OC(F)F)cc1)c1cc[n+]([O-])cc1		inactive: -4.99%

Structure (SMILES)	Potency	activity change, negative = displacement
NC(=O)CC(NC(=O)c1ccc(Br)cc1)c1ccc(NC2CCCCCC2)c([N+](=O)[O-])c1 (centres undefined)	inconclusive: 3.55 µM [inhibitor, partial curve]	
CC(C)(C)C1CCc2c(sc(NC(=O)c3cc4ccccc4c(=O)o3)c2C(N)=O)C1 (centres undefined)		inactive: 0.0604%
COc1ccccc1NC(=O)Cn1cc(S(=O)(=O)Cc2ccccc2)c2ccccc21	inconclusive: 3.55 µM [inhibitor, full curve, poor fit]	
COCC1CCN(C(=O)c2cc(COc3ccc(C)c(C)c3)on2)C1 (centres undefined)	inconclusive: 28.2 µM [inhibitor, partial curve]	
O=[N+]([O-])c1ccc(CSC2=NCCS2)cc1	inconclusive: 20 µM [inhibitor, partial curve]	
CCN(Cc1ccccc1)C(=O)c1ccc(NC(=O)c2ccc(OC)cc2)cc1	inconclusive: 7.94 µM [inhibitor, partial curve]	
O=C(CSc1nnc(-c2ccco2)n1Cc1ccccc1)c1ccc(F)cc1	inconclusive: 25.1 µM [inhibitor, partial curve]	
CN1CCN(CC(=O)C23CC4CC(CC(C4)C2)C3)CC1	inconclusive: 31.6 µM [inhibitor, partial curve]	
CC1CCN(c2nn3c(=O)c(C(=O)NCCCOC(C)C)cnc3s2)CC1	inconclusive: 5.01 µM [inhibitor, single point]	
Cc1ccc2nc(-c3cccs3)c(Nc3c(C)cccc3C)n2c1		inactive: 35.4%
C/C(=N\NC(=O)c1nnn(-c2nonc2N)c1CN1CCC(C)CC1)c1cccc(Br)c1		inconclusive: -24.7% [inhibitor]
CCC(C(=O)Nc1nnc(-c2ccco2)s1)c1ccccc1 (centres undefined)	inconclusive: 39.8 µM [inhibitor, single point]	
Cc1cc(C)c(S(=O)(=O)c2ccccc2)c(OC(=O)c2c(F)cccc2F)n1		inactive: -12.2%
CCOC(=O)C1CCCN(c2nc3c(S(=O)(=O)c4ccc(CC)cc4)nnn3c3ccsc23)C1 (centres undefined)		inactive: -13.1%
CC1(C2(O)CC(c3ccccc3)ON2)CCCCC1 (centres undefined)	inconclusive: 15.8 µM [inhibitor, partial curve]	
COC(=O)C1=C(N)c2ccccc2C1(C#N)c1ccccc1 (centres undefined)	inconclusive: 56.2 µM [inhibitor, partial curve]	
CCCCNC(=O)CSc1nc2ccc(NC(=O)CSc3nnc(COc4ccccc4C)n3C)cc2s1	inconclusive: 35.5 µM [inhibitor, partial curve]	
Cc1ccc2nc(N(CCCN(C)C)C(=O)c3ccc(S(=O)(=O)N4CCCCCC4)cc3)sc2c1	inconclusive: 22.4 µM [inhibitor, partial curve]	
Cc1cc(NC(=O)COC(=O)C2COc3ccccc3O2)no1 (centres undefined)	inconclusive: 22.4 µM [inhibitor, partial curve]	
COCCN(Cc1ccccc1)C(=S)Nc1ccc(OC(F)F)cc1		inactive: -6.65%
c1ccc2c(c1)oc1c(Nc3ccc(CN4CCOCC4)cc3)ncnc12	inconclusive: 39.8 µM [inhibitor, partial curve]	
CCC(NS(=O)(=O)c1cn(C)nc1C)c1ccccc1 (centres undefined)		inactive: -3.83%
Clc1c(OCCCn2ccnc2)ccc2ccccc12	inconclusive: 17.8 µM [inhibitor, partial curve]	

Structure (SMILES)	Potency	activity change, negative = displacement
O=c1c(/C=C(\O)c2ccc(F)cc2)nc2ccccc2n1-c1ccccc1		inactive: -8.37%
COc1ccc(NC(=O)Cn2nnc(C(=O)NCc3cccs3)c2N)cc1	inconclusive: 3.16 µM [inhibitor, partial curve]	
Nc1c(S(=O)(=O)O)cc(NC(=O)c2ccccc2)c2c1C(=O)c1ccccc1C2=O		inactive: 5.78%
Cc1cccc(-n2c(SCC(=O)Nc3nonc3C)nnc2-c2ccoc2C)c1	inconclusive: 31.6 µM [inhibitor, partial curve]	
COc1cccc(OCc2cc(C(=O)NCc3cnc4ccccn34)no2)c1	inconclusive: 25.1 µM [inhibitor, partial curve]	
CCOC(=O)c1c(C2COc3ccccc3O2)csc1NC(=O)c1ccccc1 (centres undefined)		inactive: -4.3%
Cc1ccsc1CNC1C2CC3CC(C2)CC1C3 (centres undefined)	inconclusive: 12.6 µM [inhibitor, partial curve]	
NCCCCCc1nnc(SCc2ccccc2Cl)o1	inconclusive: 14.1 µM [inhibitor, partial curve]	
Cc1ccn2cc(C34CC5CC(CC(C5)C3)C4)nc2c1	inconclusive: 28.2 µM [inhibitor, partial curve]	
Cc1ccc(-n2ncc(C(=O)N3CCN(c4cc(Cl)ccc4C)CC3)c2C2CCN(C(=O)OC(C)(C)C)CC2)cc1	inconclusive: 2.51 µM [inhibitor, full curve]	
COC(=O)c1ccc(NC(=O)c2cccc(OC)c2)cc1	inconclusive: 25.1 µM [inhibitor, partial curve]	
CCc1nnc(NC(=O)C(CC)CC)s1		inactive: -8.59%
CCOC(=O)c1ccc(NC(=O)/C=C/c2cccs2)cc1	inconclusive: 20 µM [inhibitor, partial curve]	
CCC1Sc2ccc(S(=O)(=O)Nc3ccc(OC)c(OC)c3)cc2NC1=O (centres undefined)		inactive: -0.591%
CC(C)Cc1nc(SCc2cccnc2)c2c(=O)n(C)c(=O)n(C)c2n1	inconclusive: 35.5 µM [inhibitor, partial curve]	
CCOC(=O)C(CC)n1nnc2sc(-c3ccccc3)cc2c1=O (centres undefined)	inconclusive: 22.4 µM [inhibitor, partial curve]	
Cc1ccccc1NC(=O)c1cccc(S(=O)(=O)Oc2ccc([N+](=O)[O-])cc2)c1	inconclusive: 22.4 µM [inhibitor, partial curve]	
Cc1ccc(NC(=O)Cn2c(=O)n(Cc3ccccc3)c(=O)c3sc4ccccc4c32)cc1		inactive: -9.07%
CC(NC(=O)c1ccccc1N)c1ccccc1 (centres undefined)	inconclusive: 39.8 µM [inhibitor, single point]	
Cc1ccc(/C=N/NC(=O)CSc2nc3ccccc3n2C)s1	inconclusive: 15.8 µM [inhibitor, partial curve]	
O=C(O)C1C2C=CC(C2)C1C(=O)Nc1cccc(Cl)c1 (centres undefined)	inconclusive: 44.7 µM [inhibitor, single point]	
CC(C)(C)C(=O)Nc1ccc(-c2nc3ccc(NC(=O)C(C)(C)C)cc3[nH]2)cc1	inconclusive: 31.6 µM [inhibitor, partial curve]	
CCc1nc2ccc(C(=O)N3CCN(c4cc(Cl)ccc4C)CC3)cc2nc1CC	inconclusive: 39.8 µM [inhibitor, partial curve]	
